Data on 153 variants can be found in a collection of fitness landscapes (doi:10.1126/science.1257360).

B1: PhoQ; a variant is named by its letters at X, in order, P23837 (parent)
chain: MKKLLRLFFPLSLRVRFLLATAAVVLVLSLAYGMVALIGYSVSFDKTTFRLLRGESNLFYTLAKWENNKLHVELPENIDKQSPTMTLIYDENGQLLWAQRDVPWLMKMIQPDWLKSNGFHEIEADVNDTSLLLSGDHSIQQQLQEVREDDDDAEMTHSVAVNVYPATSRMPKLTIVVVDTIPVELKSSYMVWSWFIYVLSANLLLVIPLLWVAAWWSLRPIEALAKEVRELEEHNRELLNPATTRELTSLVRNLNRLLKSERERYDKYRTTLTDLTHSLKTPLXXLQXXLRSLRSEKMSVSDAEPVMLEQISRISQQIGYYLHRASMRGGTLLSRELHPVAPLLDNLTSALNKVYQRKGVNISLDISPEISFVGEQNDFVEVMGNVLDNACKYCLEFVEISARQTDEHLYIVVEDDGPGIPLSKREVIFDRGQRVDTLRPGQGVGLAVAREITEQYEGKIVAGESMLGGARMEVIFGRQHSAPKDE

Some of the results follow.

In this experiment the parent is B1. Kind of experiment: enrichment ratio after two sorts for PhoP signalling (ratio (wild type AVST 3.29)); higher = more functional. As to conditions: with PhoP (E. coli).
Turning to PSEI, the enrichment ratio is at most 0.25.

For TETE, the enrichment ratio worked out at 18.8.

On to GIWR, for which the enrichment ratio was at most 0.25.

For WYLN, the enrichment ratio was at most 0.25.

On to RSER, for which the enrichment ratio was at most 0.25.

As to DYSC, the enrichment ratio was at most 0.25.

For YQCT, the enrichment ratio was at most 0.25.

For the variant NGRT, the enrichment ratio is at most 0.25.

Take KHNC: the enrichment ratio is at most 0.25.

With SCPM, the enrichment ratio turned out to be 7.6.

Consider FKSE, for which the enrichment ratio is at most 0.25.

On to ALRI, for which the enrichment ratio was at most 0.25.

On to DSPS, for which the enrichment ratio was at most 0.25.

Take FHGN: the enrichment ratio is at most 0.25.

Regarding TRDC, the enrichment ratio is at most 0.25.

On to VMVE, for which the enrichment ratio is at most 0.25.

Regarding RVMY, the enrichment ratio is at most 0.25.

On to RRKT, for which the enrichment ratio is at most 0.25.

With QKDF, the enrichment ratio is at most 0.25.

In the case of SQGI, the enrichment ratio turned out to be 2.38.

As for KAHE, the enrichment ratio was at most 0.25.

Turning to MAKQ, the enrichment ratio is at most 0.25.

For HIGM, the enrichment ratio is at most 0.25.

In the case of NFHV, the enrichment ratio is at most 0.25.

Take ATVA: the enrichment ratio is 1.05.

With DAVM, the enrichment ratio is at most 0.25.

On to EDFW, for which the enrichment ratio was at most 0.25.

Regarding FNHL, the enrichment ratio is at most 0.25.

Turning to NPQH, the enrichment ratio was at most 0.25.

VLFK: the enrichment ratio was at most 0.25.

Regarding MGFC, the enrichment ratio is 14.4.

In the case of WNKA, the enrichment ratio was at most 0.25.

As for TQIT, the enrichment ratio was at most 0.25.

YCCC: the enrichment ratio stood at 0.444.

Regarding SLVS, the enrichment ratio came out at 1.29.

In the case of WTCL, the enrichment ratio is at most 0.25.

Consider RPTQ, for which the enrichment ratio is at most 0.25.

As for VSGI, the enrichment ratio was at most 0.25.

As to EGHC, the enrichment ratio was at most 0.25.

For the variant KQED, the enrichment ratio was at most 0.25.

As for FCWG, the enrichment ratio was at most 0.25.

In the case of VRLR, the enrichment ratio stood at 0.319.

DSGR: the enrichment ratio is at most 0.25.

Consider RLTV, for which the enrichment ratio is at most 0.25.

For the variant PNPK, the enrichment ratio is at most 0.25.

With RHLP, the enrichment ratio was at most 0.25.

Regarding GQVK, the enrichment ratio is at most 0.25.

In the case of WDLS, the enrichment ratio was at most 0.25.

For the variant WAGR, the enrichment ratio was at most 0.25.

Regarding FRHE, the enrichment ratio was at most 0.25.

As for TTNH, the enrichment ratio was determined as 12.2.

Take ENCT: the enrichment ratio is at most 0.25.

With PEWP, the enrichment ratio was at most 0.25.

Take TMGG: the enrichment ratio was 15.7.

Regarding NEQD, the enrichment ratio was at most 0.25.

Regarding RDVY, the enrichment ratio is at most 0.25.

As to TCQT, the enrichment ratio is 3.19.

Turning to PSSD, the enrichment ratio is at most 0.25.

Take RTNI: the enrichment ratio is at most 0.25.

For the variant FCIS, the enrichment ratio was at most 0.25.

As for AECG, the enrichment ratio is at most 0.25.

Take WGNS: the enrichment ratio was at most 0.25.

With TTET, the enrichment ratio is at most 0.25.

PERM: the enrichment ratio was at most 0.25.

For the variant QCGT, the enrichment ratio was at most 0.25.

In the case of VQVR, the enrichment ratio is at most 0.25.

For the variant TDEL, the enrichment ratio is at most 0.25.

In the case of KVWN, the enrichment ratio is at most 0.25.

For the variant IFHM, the enrichment ratio is at most 0.25.

On to FITH, for which the enrichment ratio was at most 0.25.

Take FHHG: the enrichment ratio is at most 0.25.

On to THLD, for which the enrichment ratio came out at 1.29.

As to YFMS, the enrichment ratio was at most 0.25.

With VMKD, the enrichment ratio was at most 0.25.

On to HYNI, for which the enrichment ratio is at most 0.25.

For QQLA, the enrichment ratio is at most 0.25.

Take HFMG: the enrichment ratio was at most 0.25.

As for CSCL, the enrichment ratio was 16.1.

Turning to VMTK, the enrichment ratio is at most 0.25.

For the variant QKCL, the enrichment ratio is at most 0.25.

With HYMY, the enrichment ratio stood at 2.85.

For TQQD, the enrichment ratio turned out to be 4.47.

As for TVFR, the enrichment ratio was at most 0.25.

In the case of RCHP, the enrichment ratio was at most 0.25.

As for AHTG, the enrichment ratio is at most 0.25.

On to LDLW, for which the enrichment ratio was at most 0.25.

For WIVG, the enrichment ratio is at most 0.25.

For the variant PNHR, the enrichment ratio was at most 0.25.

As for TYWG, the enrichment ratio is at most 0.25.

For the variant GIVW, the enrichment ratio was at most 0.25.

With WSPY, the enrichment ratio is at most 0.25.

In the case of YDYG, the enrichment ratio was at most 0.25.

PKPM: the enrichment ratio is at most 0.25.

Turning to GNCY, the enrichment ratio is 4.37.

Regarding QFRD, the enrichment ratio was at most 0.25.

GMMM: the enrichment ratio is at most 0.25.

As for IPTR, the enrichment ratio is at most 0.25.

For VFWM, the enrichment ratio was at most 0.25.

RACH: the enrichment ratio is at most 0.25.

As for RLVH, the enrichment ratio is at most 0.25.

Take DFIA: the enrichment ratio is at most 0.25.

In the case of NFWY, the enrichment ratio is at most 0.25.

On to PPFE, for which the enrichment ratio is at most 0.25.

With NEFH, the enrichment ratio is at most 0.25.

As for DFVA, the enrichment ratio was at most 0.25.

With QSKC, the enrichment ratio was at most 0.25.

Turning to QPYI, the enrichment ratio is at most 0.25.

For SSKP, the enrichment ratio was at most 0.25.

As for IDWR, the enrichment ratio is at most 0.25.

Regarding MDIH, the enrichment ratio is at most 0.25.

IWKG: the enrichment ratio was at most 0.25.

Turning to RDIH, the enrichment ratio is at most 0.25.

As to PHCW, the enrichment ratio was at most 0.25.

Regarding AKIL, the enrichment ratio worked out at 18.4.

Regarding NKTH, the enrichment ratio was at most 0.25.

As for GIFI, the enrichment ratio was at most 0.25.

In the case of LMGE, the enrichment ratio was at most 0.25.

KDCI: the enrichment ratio was at most 0.25.

Consider FKCG, for which the enrichment ratio was at most 0.25.

For the variant NNMT, the enrichment ratio is at most 0.25.

Turning to VLYV, the enrichment ratio is at most 0.25.

With ERHW, the enrichment ratio is at most 0.25.

As for WDDP, the enrichment ratio is at most 0.25.

Take WVWT: the enrichment ratio was at most 0.25.

Regarding VRWE, the enrichment ratio was at most 0.25.

Turning to SMCL, the enrichment ratio came out at 16.6.

Consider SYYH, for which the enrichment ratio was at most 0.25.

As to HNHH, the enrichment ratio is at most 0.25.

For the variant NLRD, the enrichment ratio is at most 0.25.

On to RHIH, for which the enrichment ratio is at most 0.25.

For the variant NNVV, the enrichment ratio is at most 0.25.

For the variant RAMV, the enrichment ratio was at most 0.25.

Take MVLH: the enrichment ratio is at most 0.25.

In the case of TDTC, the enrichment ratio was determined as 10.7.

IQCR: the enrichment ratio is at most 0.25.

As to FMDH, the enrichment ratio was at most 0.25.

Regarding MICR, the enrichment ratio was at most 0.25.

Consider LHHW, for which the enrichment ratio is at most 0.25.

Regarding VVRE, the enrichment ratio was at most 0.25.

Regarding FWSG, the enrichment ratio is at most 0.25.

For VVRL, the enrichment ratio was at most 0.25.

As to HGFD, the enrichment ratio is at most 0.25.

Regarding GGMF, the enrichment ratio was at most 0.25.

Consider TKYI, for which the enrichment ratio was determined as 2.52.

For YGNC, the enrichment ratio was at most 0.25.

PIRT: the enrichment ratio was at most 0.25.

Regarding VNNG, the enrichment ratio was at most 0.25.

Consider WRWG, for which the enrichment ratio was at most 0.25.

Consider TPVT, for which the enrichment ratio is at most 0.25.

With GTVY, the enrichment ratio is at most 0.25.

Turning to DDMT, the enrichment ratio is at most 0.25.

As for WTTD, the enrichment ratio is at most 0.25.

With LDVL, the enrichment ratio was at most 0.25.
